The supplement of paper PMC10126150
Sequences with one replicate were seen in a single cluster, so their values are uncertain.

Test system: ATP
Test: switch fluorescence ratio, 500 uM ATP over buffer (Cy3 cluster intensity, sum of 5 cycles each) (fold (ratio)); higher = stronger signal-on switching upon ATP binding; sequences stand for … in TCGTCGGCAGCGTCAGATGTGTATAAGAGACAGTTTTTTTTTTTTTTTTTTTTTTTTT…TC
Conditions: aptamer strand: ATP DNA aptamer (quencher-CACCTGGGGGAGTATTGCGGAGGAAGG + anchor), 100 nM annealed; ATP concentration: 500 uM; one replicate
Procedure, shortened: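 Switching-strand clusters labelled with Cy3 on a modified Illumina MiSeq flow-cell were annealed to 100 nM quencher-labelled ATP aptamer, imaged in selection buffer, and re-imaged after 15 min with 500 uM ATP at 22 °C. This was done over five cycles with NaOH stripping and re-annealing in between. The fluorescence ratio is summed target-cycle over summed buffer-cycle Cy3 intensity per cluster, averaged per switch-domain sequence, excluding clusters outside 100-1000 RFU.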
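Also: ATP exposure 15 min at 22 °C before imaging.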

Sequence | switch fluorescence ratio
CATGATGGGC | 1.07
GGGCAGATGC | 0.955
ACTAGCCACG | 1.05
CTTCATGCTG | 1
GATGGTTCTT | 0.987
GCTAATGTAC | 1.26
GCTGGTACAA | 1.03
TCGTTGTAGT | 1.01
GTTACCGGGC | 1.06
GGGTGCCCTG | 0.992
TAAGCTCTTG | 0.97
ATCCCGGAGC | 1.63
CCTCCAGAGT | 2.93
TAACGCCCGT | 0.994
GTCATGTAGC | 0.984
ATCATCGGTC | 1.03
TCGGTTAATC | 1.02
GAGGGGGAAT | 0.986
GCAGGAGGAC | 1
AACCCCAAGG | 1.4
AGGGGCGTTG | 0.994
TTACCGACGA | 1.7
GACGTAATC | 3.95
ATCGCCGGAG | 1.01
CTTTGAAGTG | 0.982
ATAAGTCGTT | 0.972

Sequence | switch fluorescence ratio
CACATAGACT | 1.03
CATTATGGTA | 1.04
TAGACCATTC | 1.01
CTCCGAGGTT | 1.64
GGGTTACATG | 0.973
ACGACGTCA | 1.24
GAATTTTCTG | 0.965
TCCGACAGAG | 1.09
AACGATAACG | 1.02
TAAGTACATG | 1.19
CGTTTACCCC | 1.02
GATTCAAGGT | 0.986
GAGAATATGC | 1.05
TAAACCTTAA | 1.69
CGCCCCCCGT | 1.7
ATTT | 0.973
GAGTGTCGCA | 0.996
CTTACGGTAA | 1.16
TACGCTCTGA | 1.01
GCCGGGAAAA | 1.04
TATGATGCAA | 1.01
GAGATCCCCC | 1.04
CCGTCTCTTT | 0.966
CAGCTTCTT | 0.974
GGGAGGCGTC | 1.33
ATCATGTTGT | 1.02

Sequence | switch fluorescence ratio
TCAGGATTGC | 0.999
CTGATGCGGA | 1.08
CCTTATACA | 1
ATTCCGGAGT | 2.22
CCTGATCTTC | 0.954
ATGCGATCTG | 0.987
AAATGATTTC | 0.968
TCTCTTCTTG | 1.02
TGGACTAATT | 0.942
GTTTTACTAT | 0.963
TGAAATTGGT | 0.947
TGCGATAGTG | 1.01
ACCGTCCGTG | 1.08
TTGCAGCAGA | 1.37
GGACAGCACC | 1.17
TTGTGAATG | 0.985
CCATGGCAGC | 1.23
ACTGAAAGCG | 0.983
CAGTGTAGAT | 0.988
CATAGATCAG | 0.964
CGGCATCAGC | 0.995
AAGTGATCAA | 0.994
TGTGGCCGAT | 0.993
CTGCAGCTTG | 1.05
CGGGCGATAT | 1.16
AGGTAATATA | 1.03

Sequence | switch fluorescence ratio
GTTTTCCGGT | 1.01
ATTCTCCAGG | 2.17
ATTAAAAGAG | 1.02
CCATCAACAT | 1.07
TTATAGCTGA | 1.04
GGACTAGACT | 1.04
CGGATCTATG | 0.947
GAATCTCGTA | 1.02
TAAATGATGA | 1.01
TCACTTCGCG | 1.1
TCCCCTGAGT | 1.12
AGTACTAATG | 1
TTGACCTTGT | 1.02
TGATGCTAGA | 1.01
AAGGAACATA | 0.984
AGTGGTTCTT | 1
TCTACGTTAC | 2.5
AATCATGGCC | 0.997
TTGCCATGCA | 0.98
CGGCGCTGTA | 0.978
TCCCTATCTA | 0.984
CTAACAGTTC | 1.03
TGGCCTTCAT | 1.22
CAATCCATGG | 0.999
TCCGATATTT | 1.08
GCAGTGAACA | 1.01

Sequence | switch fluorescence ratio
CGGCAGCGG | 1.07
CCAGGAAGGG | 1.03
TTCATTGTTG | 0.962
CCCTGGGACA | 0.974
ACTCTGGCTG | 1.05
AAGACTAGTG | 0.982
AACTTTTTCT | 1.08
GTATTCAAGT | 0.961
GTAAGGTGAA | 1.06
GGGTATAGC | 0.993
CATTATGTGG | 0.981
GCAACATAGA | 0.973
TCGGGTTACT | 0.998
GAGTCAAGGT | 1.01
CTGGAGACGT | 1.05
GCTCGTCGCG | 1.03
TGCCATAAAT | 0.983
AGCGCTGGCA | 1
TGTACCT | 1.27
GAGTGTCAGG | 1.02
ATCTGTGTGA | 1.02
TGGCATACA | 1
TTCGTCTTGT | 0.952
GTGAAAATGC | 1.03
CAGTTATATC | 1.03
GGGTGTTCC | 1

Sequence | switch fluorescence ratio
TCCAAATGAC | 1.17
CGCACCGTCG | 1.05
CAGAGTGGTA | 1.01
CAAAGTCGTG | 0.968
TGTCCGCGAG | 2.91
TATTTCGCCT | 1.05
GACATTTGCG | 1.02
CGCCGGCAGA | 0.993
AATCTCCCGA | 1.02
GAGTGGACAT | 1.03
CTGATGTAAA | 1.03
TAGGTTTTCT | 0.994
AGTGGCGCTC | 1.02
CCACTTAATC | 1.12
GCTGGTACGA | 1.1
CTACCTCTAA | 1.04
AGCTACATAA | 1.06
AGGAACCCCC | 1.05
AATATCACGA | 1.1
TCGTAGCAGA | 3.35
AAAGCTTTCT | 1.01
TATGCTGTGG | 0.988
TGTCGGGACA | 1.01
TTTGTGAGAC | 1.2
ATGGTTGCCA | 0.976
ACTAGGATGC | 0.987

Sequence | switch fluorescence ratio
GAATTGCGCA | 0.995
AAGGCGTCCG | 0.95
ATGTTAGCCG | 0.997
AGGGGATACT | 2.27
CGTGAGTAGA | 0.984
GGCGGAATCA | 1.04
CAAGGTGGAG | 0.998
ACTCTCTTCG | 1.05
TGTCGTGTAA | 1.01
AGGTTCGCTT | 0.997
ATAAAATTG | 1.01
GACATATTAC | 1.17
TATGAGGGAC | 0.963
GCGCAAATAT | 1.02
CAATTATGGA | 0.988
TGTGCGCTAA | 1.06
GCTCCATGCG | 0.965
GGATCACTCG | 1.04
GGTAGAGCAT | 0.996
ATCAGGTAGG | 0.998
AGCTCGTCAG | 1
ACTGTAGGCC | 1.05
ATGTGGGCAG | 1.01
TTTGTCAGC | 0.994
GCAAAGAATG | 1.03
GCGTTGACCT | 1.12

Sequence | switch fluorescence ratio
TTCCGGTCGG | 1.03
CACAGGGGTT | 1.69
CGGCTTCTAC | 1.07
TAATACGTCT | 1.03
GGGGTGGCGG | 0.939
CTGAAGTTAA | 1.14
GTGTCATATT | 0.981
TTCGGTTCTG | 0.968
TGGGGAAGGC | 1.03
TCAGACGGTT | 1.04
AAGCCTCTAG | 1.01
CTAGCGCGCC | 0.987
TGGTGTTGTG | 0.991
CAGCGGGAGA | 1.06
CAATTGTACC | 1.08
GGATGGTCAC | 0.965
AAGATAAGGC | 0.99
TTGTTTGTCT | 1.03
GCTAGGCCGT | 1
